Out of some 48,000 compounds screened, about 450 (0.94%) were called active. Roughly 19% stayed inconclusive and do not appear here. Calls follow the shape of the dose curve; as a rule, active = well fitted inhibition curve with a large enough effect; inconclusive = small, poorly fitted or top-dose-only effect; inactive = no such curve, though single readings can be large or run the other way. The list shows a part of the results.
test: Primary qHTS for Identification of Small Molecule Inhibitors of Huntingtin Promoter Activity; conditions: HEK293 HTT promoter firefly luciferase reporter (activity 0% = vehicle and -100% = no light), 24 h; series mostly up to 57.5 µM; activity change, negative = inhibition: at the top concentration; also: nearly all actives have a fitted effect of over 50% in size
Method in brief: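 Quantitative HTS used concentration series of up to 57.5 uM final on HEK293 luciferase reporter cells, 24 h at 37 degrees C. Readout was Dual-Glo firefly luminescence.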

Activity change, negative = inhibition, inactive:
Cn1c(=O)n(C/C=C/c2ccccc2)c(=O)c2c1nc1n2CCN1c1ccc(Cl)cc1 3.76%
CCN(CC)c1nn2c(=O)c(C(=O)NCc3cccc(C)c3)cnc2s1 -3.6%
CCn1cc(S(=O)(=O)c2ccc(C)cc2)c(=O)c2cc(F)c(N3CCCCCC3)cc21 9.72%
CCOC(=O)c1[nH]c(C)c(CCC(=O)NCc2ccccc2C)c1C -13.9%
Cc1ccc(NC(=O)CSc2ncnc3c2sc2ccccc23)cc1C -12.3%
Cc1nn(C(=O)c2cccc(F)c2)c(C)c1S(=O)(=O)N1CCCCCC1 -11.4%
CCC(C)NC(=O)Cn1c(=O)n(Cc2ccc(C(=O)NCc3ccccc3OC)cc2)c(=O)c2ccccc21 (stereo unspecified) -16.4%
Cc1ccc(C)c(NC(=O)CSc2nc(=O)n(Cc3ccccn3)c3c2CCC3)c1 -4.07%
Cc1cccc(N2CCN(S(=O)(=O)c3ccc(F)c(C(=O)Nc4ccc(C(C)C)cc4)c3)CC2)c1C -26.4%
COc1ccc(OC)c(Nc2ncnc3c2cnn3-c2ccc(C)cc2)c1 -20.5%
Cc1cc(C)cc(NS(=O)(=O)c2ccc3[nH]cc(C(=O)N4CCCCCC4)c(=O)c3c2)c1 -1.38%
CCOc1ccc(CC(=O)NC2CC(=O)N(c3ccc(C)c(C)c3)C2)cc1 (stereo unspecified) -22.7%
C#CC(C)(CC)NC(=O)c1cc2c(n(-c3ccc(Cl)cc3)c1=O)CC(C)(C)CC2=O (stereo unspecified) -6.94%
COCCn1c(C)cc(O)c(C(c2ccc(C)cc2)N2CCCCC2)c1=O (stereo unspecified) -12%
CC(=O)N1CCc2cc(Br)cc(S(=O)(=O)N3CCN(c4cc(C)ccc4C)CC3)c21 0.243%
Cc1ccccc1OCC(=O)N(Cc1ccc(N(C)C)cc1)CC1CCCO1 (stereo unspecified) -25.5%
OCc1nc2ccccc2n1Cc1c(F)cccc1Cl 0%
Cn1cc(-c2cc3n(n2)CCC(=O)N3CC(=O)O)c2ccccc21 -14.5%
Cc1cccc(CNC(=O)CCCN2C(=O)CCn3nc(-c4cn(C)c5ccccc45)cc32)c1 0%
CCN(CC)c1ccc(NC(=O)c2cc(S(=O)(=O)N3CCc4ccccc43)cn2C)c(C)c1 -0.905%
CCN1CCN(c2c(S(=O)(=O)c3ccccc3)cnc3ccc(Cl)cc23)CC1 -6.53%
Cc1ccc(OCC(=O)OCc2cc(=O)n3nc(-c4cccs4)sc3n2)cc1 2.5%
COc1cccc(NC(=O)C2CCCN(c3nnc(-n4c(C)ccc4C)s3)C2)c1 (stereo unspecified) -7.47%
COCCCn1c(=N)c(S(=O)(=O)c2ccccc2)cc2c(=O)n3cc(C)ccc3nc21 -2.66%
COc1ccccc1CNC(=O)CCCn1nc(C)c2sc3ccccc3c2c1=O 8.36%
CC(C)(C)OC(=O)N1CCC(c2c(C(=O)N3CCN(c4ccc(Cl)cc4)CC3)cnn2-c2ccc(F)cc2F)CC1 -12.1%
COc1ccc(Cl)cc1NC(=O)c1cc2ccc3ccc(C)[nH]c3c2n1 -2.31%
Cn1cc(S(=O)(=O)c2ccc(Cl)cc2)c(=O)c2cc(F)c(N3CCCC3)cc21 -17.4%
Cn1c(=O)c2nc(SCC(=O)Nc3cc(Cl)cc(Cl)c3)n(C)c2n(C)c1=O -20%
CCc1ccc(NC(=O)CSc2c(C)cnc3c2c(=O)n(C)c(=O)n3C)cc1 -17%
Cc1nc2sccn2c(=O)c1S(=O)(=O)NCc1ccc(F)cc1 -10.2%
Cc1ccc(Cn2c(CNS(=O)(=O)c3ccc(C(C)(C)C)cc3)nc3cccnc32)cc1 -29.1%
O=C(c1cc(-c2ccc(Cl)cc2)on1)N(Cc1cccc(F)c1)Cc1ccco1 -33.7%
COc1ccc(CNc2nc(-c3ccco3)nn2C(=O)c2ccccc2Cl)cc1 58.3%
COc1cc(NC(=O)c2cc(-c3cccs3)on2)c(OC)cc1Cl -3.84% [at 11.5 µM]
COc1ccc(NC(=O)C(=O)NCCc2ccc(OC)c(OC)c2)c(OC)c1 -4.87%
COc1ccccc1CNc1nc2ccccc2c2nc(-c3cccnc3)nn12 0.606%
O=C(COc1ccccc1Cl)OCc1cc(=O)n2nc(C3CC3)sc2n1 -16.8%
COCCCNC(=O)c1cnn(-c2ccccc2Cl)c1C1CCN(C(=O)OC(C)(C)C)CC1 0.121%
COc1ccc(CCNC(=O)c2cccc(-n3c(C)nc4cccnc43)c2)cc1OC -9.9%
COc1ccc(-c2cc3nc(-c4ccc(Br)cc4)cc(C(F)(F)F)n3n2)cc1 -18.1%
COC(=O)c1ccc(NC(=O)CSc2cn(CC(=O)N3CCCCCC3)c3ccccc23)cc1 -28%
COc1ccc(NC(=O)Cn2c(C)cc3ccccc3c2=O)c(OC)c1 7.35%
Cc1nn(-c2nc(-c3ccc(F)cc3)cc(C(F)(F)F)n2)c(C)c1Br -20.1%
COC(=O)c1cc(C)nc2c1c(=O)nc(SCc1cccc(C)c1)n2C1CC1 -8.48%
CCOc1ccc(CNC(=O)CCS(=O)(=O)c2cc3c(cc2Cl)NC(=O)CO3)cc1OC 9.3%
CCOC(=O)c1ccccc1NC(=O)Nc1cc2c(cc1N1CCCCC1)n(C)c(=O)n2C -6.16%
O=C(Nc1ccc(N2CCC(c3ccccc3)C2)c(C(=O)O)c1)c1ccc(Cl)cc1 (stereo unspecified) -21.8%
COc1cccc(NC(=O)CCc2c(C)nc3c4cccnc4nn3c2C)c1 -20.7%
CCOc1ccc(Oc2nc(NCC(C)C)nc(NC(C)(C)C)n2)nn1 7.22%
COc1ccccc1OCC(=O)N(Cc1ccc(Cl)cc1)CC1CCCO1 (stereo unspecified) -11.4%
CCc1cccc(CC)c1NC(=O)c1ccc2c(c1)CCN2S(=O)(=O)c1ccccc1 -25.7%
Cc1cccc(NC(=O)CN2C(=O)c3cccnc3Oc3ccc(Cl)cc32)c1C -9.19%
CSc1ccc(CCNC(=O)CCCn2nc(C)c3sc4ccccc4c3c2=O)cc1 10.8%
COCCCNc1ncnc2onc(-c3ccc(F)cc3)c12 -16.5%
COCCCNC(=O)CN1C(=O)COc2ccc(S(=O)(=O)N3CCCC3)cc21 -7.68%
Cc1n[nH]c(C)c1S(=O)(=O)N(CC(=O)NC(C)c1ccccc1)c1ccc(C(C)C)cc1 (stereo unspecified) -18%
COc1cccc(NC(=O)Cn2cnc3c(nc4n3CCCCC4)c2=O)c1 -11.5% [at 11.5 µM]
CS(=O)(=O)N1CCc2cc(C(=O)NCCc3ccccc3)ccc21 47.4%
Cc1ccc(-c2cc(C(=O)N3CCN(S(=O)(=O)c4ccc(Br)cc4)CC3)[nH]n2)cc1C 6.69%
CCC(=O)NCC(c1ccc2c(c1)OCO2)N1CCN(c2ccccc2)CC1 (stereo unspecified) -9.23%

— PubChem BioAssay AID1508623 (National Center for Advancing Translational Sciences (NCATS), 2021)
